In the RNAGym collection of RNA variant scans (doi:10.1073/pnas.2313332121):
Variants at the floor of the assay are shown more often than the library holds them.

B1: TPR 5TU (parent)
chain: GGAUCUUCUCGAUCUAACAAAAAAGACAAAUCUGCCACAAAGCUUGAGAGCAUCUUCGGAUGCAGAGGCGGCAGCCUUCGGUGGCGCGAUAGCGCCAACGUUCUCAACUAUGACACGCAAAACGCGUGCUCCGUUGAAUGGAGUUUAUCAUG

Variants of: B1
Assay: polymerase ribozyme fitness, log enrichment relative to wild type (log ratio); higher = more active; in vitro selection for triplet polymerase activity
Outline: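 For each subunit of a heterodimeric triplet polymerase ribozyme, a mutant library was built by PCR and transcribed, then taken through a single in vitro selection round in triplicate. Selection involved annealing to a biotinylated primer, the partner subunit and triplets, incubation frozen at −7 °C, gel excision of extended constructs, capture on streptavidin beads and RT-PCR. Genotypes were retained after Illumina sequencing of inputs and outputs only with ≥10 input reads and ≥1 read in each output. Fitness is defined as the logarithm of a genotype's enrichment relative to wild-type enrichment, using inverse-variance-weighted averages across replicates, with the logarithm taken to base 2.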

Variant | polymerase ribozyme fitness (log ratio)
U7A A110C A138U | ≤ -4.2
U7A A119G A120C | -3.25
U7A C10A C14U C32G C36A U53G U55G U61A G67C U82G C87G C96U C103G | ≤ -4.2
U7A C10G C32A U33A G50C G83U A91G U102C | ≤ -4.2
U7A C14A A16G G58C G83U | ≤ -4.2
U7A C14G G25C C32G A106C | ≤ -4.2
U7A C14U U31A C57G U61A A89U U90C C99A A115U A122C | ≤ -4.2
U7A C18U | -3.45
U7A C18U A23C A28U A39G G48C C57G U61A C76G | ≤ -4.2
U7A C27A U31G A66U U146G A150U | ≤ -4.2
U7A C27U U55G A66C G70U A89U C95A C118A G133C | ≤ -4.2
U7A C27U U101G U102A U145C | ≤ -4.2
U7A C35G A60G G68U C93U | ≤ -4.2
U7A C35U A49C A66G A97U | ≤ -4.2
U7A C35U C85G U102G | ≤ -4.2
U7A C36G A39U A89G G94C A137U A138U | ≤ -4.2
U7A C38U C75G C85U | ≤ -4.2
U7A C54A C72A | ≤ -4.2
U7A C54U C57A A64C C75U G92C C105U A137C | ≤ -4.2
U7A C54U G92A U101G A110G U146A | ≤ -4.2
U7A C57G G59A U61G C63G G92C G100U C103G | ≤ -4.2

Variant | polymerase ribozyme fitness (log ratio)
U7A C69U C72U U77G A89U C118U U130G U135A | ≤ -4.2
U7A C75U G94C A122G U145A | -3.63
U7A C76U G94A C105U U151A | -3.84
U7A C85G C87G A119C G126A A142G U148C | ≤ -4.2
U7A C93G C132G U139G | ≤ -4.2
U7A G11A A12C U13A U45C C51U A60C C76G G86U G92C A115U | ≤ -4.2
U7A G11A A41G A66C U77C C85U A106C U151A | ≤ -4.2
U7A G34A U55G G84A A138G U146G | ≤ -4.2
U7A G46A A47U G81U C85U U109C C123U U145C | ≤ -4.2
U7A G50A U78A C79G G86A C87A C99G A115U G141U | ≤ -4.2
U7A G70C | ≤ -4.2
U7A G71A C96G | ≤ -4.2
U7A G74A C79U C85U C87A A110U | ≤ -4.2
U7A G83A A121G U145G U148G | ≤ -4.2
U7A G86A A89C G94A U151G | ≤ -4.2
U7A U9G A19U A47G G58A G92C G136A U148G | ≤ -4.2
U7A U9G A37C G50C C99G C116U C125G A138C U148G | ≤ -4.2
U7A U9G C69U G81A G88A A106G | ≤ -4.2
U7A U31C A52C G67A C118U | ≤ -4.2
U7A U31G A49G U55A G70C G86A | ≤ -4.2
U7A U33G C79A C116U U144C | ≤ -4.2

Variant | polymerase ribozyme fitness (log ratio)
U7A U45A C57A C85G | ≤ -4.2
U7A U45G A49C G50C C87U C96A | ≤ -4.2
U7A U53A A73G C85A C125G U145C | ≤ -4.2
U7A U55A | -3.25
U7A U55A C79A C85U A121C C132U U134C U135C | ≤ -4.2
U7A U55A C85U C114A G136C | ≤ -4.2
U7A U61A G62A G71C C103G | ≤ -4.2
U7A U111G | -4.19
U7C A12C C87A C105A C116G A138U G152U | ≤ -4.2
U7C A16C C35U C63U A121G G133C | ≤ -4.2
U7C A16G A66C C79G C87A A110G G136A | ≤ -4.2
U7C A16U U53C G74A C79U G81U A91U G94C A97U | ≤ -4.2
U7C A17C G46U U78A G86C U90G A122U G143U | ≤ -4.2
U7C A17G A41G A73U C87A C125G | ≤ -4.2
U7C A19C A21G G71A G86A A121U G141U U146C | ≤ -4.2
U7C A19G A20C G25C C35U C57G C69U C79G | ≤ -4.2
U7C A19U C35U A37G U55G C76G G86A G88U C103G G124A | ≤ -4.2
U7C A20G C93U | ≤ -4.2
U7C A20U C69G U78G G94A | ≤ -4.2
U7C A21C U33G C43U G62A C87U | ≤ -4.2
U7C A21U A28U C51A C57A A97U | ≤ -4.2

Variant | polymerase ribozyme fitness (log ratio)
U7C A21U C38U G42C A64G A66C U101A C125U | ≤ -4.2
U7C A23G A49U U56G G84U G86U A137U | ≤ -4.2
U7C A23U C87A A89G C116U C125U | ≤ -4.2
U7C A24U G84U C87G A107C G112U G133U | ≤ -4.2
U7C A29C U53A C87G A147C | ≤ -4.2
U7C A29G G83A A122C | ≤ -4.2
U7C A29U C57U C95G G140U | ≤ -4.2
U7C A30G C35G U109G | ≤ -4.2
U7C A37C A60U C85G | ≤ -4.2
U7C A37C C76G C87U G117A U148G | ≤ -4.2
U7C A40C G83A C149G | ≤ -4.2
U7C A41U G83C G124C | ≤ -4.2
U7C A52U U55A G68C G83C C116A U148A | ≤ -4.2
U7C A97G U111G | ≤ -4.2
U7C C8G A28U G59A C96A C105G G126A | ≤ -4.2
U7C C8G A30C C85G U134A | ≤ -4.2
U7C C8U C10U A16C U33G A47C A64U G136C U144G | ≤ -4.2
U7C C8U C14G U15G G42U C87G U135G U144G | ≤ -4.2
U7C C10U A17U G25U G50C C57U A91U C96A G117C | ≤ -4.2
U7C C10U A26U C69A U77C G88A A106G G143U | ≤ -4.2
U7C C10U U55A G62A G65C U78G C96A | ≤ -4.2
